Sequences and labels used below:
B1: LINE1-full (parent)
chain: UACGUAGGUGGUUUUCCCCUGAUAGUGCUAAGGGGGCCUGGAAGUUUGGACUGGGCAGAGCUCAACACAGCGUGGCAAAGUGGCUGUGGCUAGACUGCCUCUCUGGAUUCCUCGUCACUCAGCAGGGCAUCUCUGAGAGAAAUGCC

The source gives no read counts; variants with many changes may rest on few reads.

In the series the parent is B1. The series can be described thus: self-cleavage, relative activity (ratio to wild type); higher = more cleavage; in vitro, sequencing; the parent is a self-cleaving ribozyme.
Take UACGUAGGUGGUUUCCCCCUGAUAGUGCUAGGGAGGCCUGGAAGUUUGGACUGGGCUGAGCUCAACACAGCGCGGCAAAGUGGCUGUGGCUAGACUGCCCCUCUGGAUUCCUCGUCACUCUGCAGGGCAUCUCUAAGAGAAAUGCC: the self-cleavage turned out to be 0.52.

Turning to UACGUAGGUGGUUUCCCCCUGAUAGUGCUAAGGGGGCCUGGAAGUUUGGACUGGGCCGAGCUCAACACAGCAUGGCAAAGUGGCUGUGGCUAGACUGCCUCUCUGGAUUCCUCGCCACUCAGCAGGGCAUCUCUGAGAGAAAUGCC, the self-cleavage turned out to be 0.04.

As to UACGUAGGUGGUUUCCCCCUGAUAGUGCUAAGGGGGCCUGGUAGUUUGGACAGGGCAGAGCUCAACACAGCGUGGCAAAGUGGCUGUGGCUAGACUGCCUCUCUGGAUUCCUCGUCACUCAGCAGGGCAUCUCUGAGAGAAAUGCC, the self-cleavage amounted to 1.79.

For the variant UACGUAGGUGGUUUCCCCCUGAUAGUGCUAAGGGGGCCUGGAAGUUUGGGCUGGGCAGAGCUCAACACAGCGUGGCAAAGUGGCCGUGGCUAGACUGCCUCUCUGGAUUCCUCGUCACUCAGCAGGGCAUCUCUGGGAGAAAUGCC, the self-cleavage came out at 0.84.

Regarding UACGUAGGUGGUUUCCCCCUGAUAGUGCUAAGGGGGCCUGGUAGUUUGGACCGGGCAGAGCUCAACACAGCGUAGCAAAGUGGCUGUGGCUAGACUGCCUCUCUGGAUUCCUCGUCACUCAGCAGGCCAUCUCUGAGAGAAAUGCC, the self-cleavage was 1.7.

As to UACGUAGGUGGUUUCCCCCUGAUUGUGCUAAGGGGGCCUGGAAGUCUGGACUGGGCAGAGCUCAACACAGCGUGGCAAAGUGGCUGUGGCUAGACCGCCUCUCUGGAUUCCUCGUCACUCAGCAGGGCAUCUCUAAGAGAAAUGCC, the self-cleavage came to 0.56.

Take UACGUAGGUGGUUUCCCCCUGAUAGUGCUAAGGGGGCCUGGAAGUUUGGGCUGGGCAGAGCUCAACACAGCGUGGCAAAGUGGCUGUGGCUAUACUGCCUCUCUGGAUUCCUCGUCACUCAGCAGGGCAUCUCUGAGAGAAAUGCC: the self-cleavage turned out to be 0.05.

Turning to UACGUAGGUGGUUUCCCCCUGAUAGUGCUGAGGGGGCCUGGAAUUUUGGACUGGGCAGAGCUCAACACAGCGUGGCAAAGUGGCUGUGGCUUGACUGCCUCUCUGGAUUCCUCGUCACUCAGCAGGGCAUCUCUGAGAGAAAUGCC, the self-cleavage was 0.93.

On to UACGUAGGUGGUUUCCCCCUGAUAGUGCUAAGGGGGCCUGGGAGUAUGGACUGGGCAGAGCUCAACACAGCGUGGCAAAGUGGCUGUGGCUAGACUGCCUCUCCGGAUUCCUCGUCACUCAGCAGGGCAUCUCUGAGAGGAAUGCC, for which the self-cleavage was 1.31.

On to UACGUAGGUGGUUUCCCCCUGAUGGUGCUAAGGGGGCCUGGAAGUUUGGACUGGGCAGAGCUCGACACAGCGAGGCAAAGUGGCUGUGGCUAGACUGCCUCACUGGAUUCCUCGUCACUCAGCAGGGCAUCUCUGAGAGAAAUGCC, for which the self-cleavage came to 1.12.

Consider UACGUAGGUGGUUUCCCCCUGAUUGUGCUAAGGGGGCCUGGAAGUUUGGACUGGGCAGAGCUCAACACGGCGUGGCAAAGUGGCUGUGGCUAGACUGCCUCUCUGGAUUCCUCGCCACUCAGCAGGGCAUCUCUGAGAGAAAUGCC, for which the self-cleavage turned out to be 0.

With UACGUAGGUGGUUUCCCCCUGAUGGUGCUAAGGGGGCCUGGAAGUUUGGACUGGGCAGAGCUCAACACAGCGUGGCAAAGUGGCUGUGGCUAGACUGCCUCUCUGGAUUCCUCGUCACUCGGCAGGGCAUCUCUGAGAGAAAUGCC, the self-cleavage is 0.

On to UACGUAGGUGGUUUCCCCCUGAUAGUGCUAAGGGGGCCUGGAGGUUUGGACUGGGUAGAGCUCAACACAGCGUGGCAAAGUGGCUGUGGCUAGACUGCCUCUCUGGAUUCCUCGUCACUCAGCGGGGCAUCUCUGAGAGAGAUGCC, for which the self-cleavage worked out at 0.24.

Consider UACGUAGGUGGUUUCCCCCUGAUAGUGCUAAGGGGGCCUGGAGGUUUGGACUGGGCAGAGCUCUGCACAGCGUGGCAAAGUGGCUGUGGCUAGACUGCCUCUCUGGAUUCCUCGUCACUCAGCAGGGCAUCUCUGAGAGAAAUGCC, for which the self-cleavage stood at 0.11.

On to UACGUAGGUGGUUUCCCCCUGAUAGUGCUAAGGGGGCCUGGAGGUUUAGACUGGGCAGAGCUCAACACAGCGUGGCAAAGUGGCUGUGGCUAGACUGCCUCUCUGGACUCCUCGUCACUCAGCAGGGCAUCUCUGAGAGAAAUGCC, for which the self-cleavage was 1.88.

UACGUAGGUGGUUUCCCCCUGAUUGUGCUAAGGGGGCCUGGAAGUUUGGACUGGGCAGAGCUCAACACAGCGUGGCAAUGUGGCUGUGGCUAGACUGCCUCUCUGGAUUCCUCGUCACUCAGCAGGGCGUCUCUGAGAGAAAUGCC: the self-cleavage was found to be 2.5.

Consider UACGUAGGUGGUUUCCCCCUGAUAGUGCUAAGGGGGCCUGGAAGUUUGGUCUGGGCAGAGCUCAACACAGCGUGGCAAAGUGGCCGUGGCUAGACUGCCUCUCUGGAUUCCUCGUCACUCAGCAGGGCUUCUCUGAGAGAAAUGCC, for which the self-cleavage came out at 0.12.

As for UACGUAGGUGGUUUCCCCCUGAUAGUGCUAGGGGGGCCUGGAAGUUUGGACUGGGCAGAGCUCAACACAGCGUGGCAAAGUGGCUGUGGCUAGACUGCCUCUCAGGAUUCCUCGUCACUCAGCAGGGCAUCUCUGAGAGAAAUGCC, the self-cleavage was 1.12.

Turning to UACGUAGGUGGUUUCCCCCUGAUAGUGCUGAGGGGGCCUGGAAGUUUGGACAGGGCAGAGCUCAACACAGCGUGGCAAAGUGGCUGUGGCUAGACUGCCUCUCUGGAUUCCUCGUCACUCAGCAGGGCAUCUCUGAGAGAAAUGCC, the self-cleavage came out at 0.76.

Consider UACGUAGGUGGUUUCCCCCUGAUAGUGCUAAGGGGGCCUGGGAGUUUGGACUGGGCAGAGCCCAACACAGCGUGGCAAAGUGGCUGUGGCUAGACUGCCUCUCUGGAUUCCACGUCACUCAGCAGGGCAUCUCUGAGAGAAGUGCC, for which the self-cleavage amounted to 0.

As to UACGUAGGUGGUUUCCCCCUGAUAGUGCUAAGGGGGCCUGGAAGUUUGGGCUGGGCAGAGCUCAACACAGCGUGGCAAAGUGGCUGUGGCUAGACUGCCCCUCUGGAUUCCUCGUCUCUCAGCAGGGCAUCCCUGAGAGAAAUGCC, the self-cleavage came to 1.53.

Regarding UACGUAGGUGGUUUCCCCCUGAUAGUGCUAAGGGGGCCUGGGAGUUUGGACUGGGCAGAGCUCAACACAGCGUGGCAAAGUGGCUGUGACUAGACUGCCUCUCUGGAUUCCUCGUCACUCAGCAGGGCAUCUCUGAGAGAAAUGCC, the self-cleavage was 0.05.

As for UACGUAGGUGGUUUCCCCCUGAUAGUGCUAAGGGGGCCUGGGAGUUUGGACUGGGCAGAGCUCAACACAGCGUGGCAAAGUGCCUGUGGCUAGACUGCCCCUCUGGAUUCCUCGUCACUCAGCAGGGCAUCUCUGAGAGAAAUGCC, the self-cleavage worked out at 0.57.

Take UACGUAGGUGGUUUCCCCCUGAUGGUGCUAAGGGGGCCUGGAAGUUUGGACUGGGCAGAGCUCAACACAGCGUGGCAAAGUGGCUGUGGCUAGACUGCCUCUCUGGAUUCCUCGUCACUCAGCAGGGCAUCUCUGAGAGAAGUGCC: the self-cleavage was 0.

Regarding UACGUAGGUGGUUUCCCCCUGAUGGUGCUAAGGGGGCCUGGAAGUUUGGACUGGGCAGAGCUCUACACAGCGUGGCAGAGUGGCUGUGGCUAGACUGCCUCUCUGGAUUCCUCGUCACUCAGCAGGGCAUCUCUGAGAGAAAUGCC, the self-cleavage was found to be 0.59.

UACGUAGGUGGUUUCCCCCUGAUAGUGCUAAGGGGGCCUGGAGGUUUGGACUGGGCAGAGCUCAACACAGCGUGGCAAAGUGGCUGUGGCCAGACUGCCUCUCUGGAUUCCUCGUCACUCAGCAGGGCAUCUCUGAGGGAAAUGCC: the self-cleavage was 0.

For UACGUAGGUGGUUUCCCCCUGAUAGUGCUAAGGGGGCCUGGAAGUUUGGUCUGGGCAGAGCUCAACACAGCGCGGCAAAGUGGCUGUGGCUAGACUGCCUCUCUGGAUUCCUCGUCACUCAGCAGGGCAUCUCCGAGAGAAAUGCC, the self-cleavage amounted to 1.34.

For the variant UACGUAGGUGGUUUCCCCCUGAUAGUGCUAAGGGGGCCUGGAAGUUUGGUCUGGGCAGAGCUCAACACAGCGUGGCAAAGUGGCUGUGGCUAGACUGCCUCUCUGGAUUCCUUGUCACUCAGCAGGGCGUCUCUGAGAGAAAUGCC, the self-cleavage turned out to be 1.64.

As to UACGUAGGUGGUUUCCCCCUGAUAGUGCUAGGGGGGCCUGGAAGUUUGGACUGGGCAGAGCUCAACACAGCGUGGCAAAGUGGCUGUGGCUAGACUGCCUCUCUGGAUUCCUCGUCACUCAGCGGGGCAUCUCUGGGAGAAAUGCC, the self-cleavage turned out to be 1.62.

For the variant UACGUAGGUGGUUUCCCCCUGAUAGUGCUAAGGGGGCCUGGAAGUUUGGACUGGGCUGGGCUCAACACAGCGUGGCAAAGUGGCUGUGGCUAGACUGCCUCACUGGAUUCCUCGUCACUCAGCAGGGCAUCUCUGAGAGAAACGCC, the self-cleavage stood at 0.08.

With UACGUAGGUGGUUUCCCCCUGAUAGUGCUGAGGGGGCCCGGAAGUUUGGACUGGGCAGAGCUCAACACAGCGUGGCAAAAUGGCUGUGGCUAGACUGCCUCUCUGGAUUCCUCGUCACUCAGCAGGGCACCUCUGAGAGAAAUGCC, the self-cleavage came to 1.53.

For UACGUAGGUGGUUUCCCCCUGAUAGUGCUAAGGGGGCCUGGAUGUUUGGACUGGGCAGAGCUCAACACAGCGUGGCAAAGUGGCUGUGGCUAGACUGCCUCUCUGGAUUCCUCGUCACUCAGCCGGGCAUCUCUGAGAGAAAUGCC, the self-cleavage amounted to 1.53.

For UACGUAGGUGGUUUCCCCCUGAUAGUGCUAAGGGGGCCUGGGAGAUUGGACUGGGCAGAGCUCAACACAGCGUGGCAAAGUGGCUGUGGCUAGACUGCCUCUCUGGAUUCCUCGUCACUCAGCAGGGCAUCUCUGAGAGAAAUGCC, the self-cleavage turned out to be 0.88.

UACGUAGGUGGUUUCCCCCUGAUAGUGCUAAGGGGGCCUGGAAGUUUGGUCUGGGCAGAGCUCACCACAGCGUGGCAAAGAGGCUGUGGCUAGACUGCCUCUCCGGAUUCCUCGUCACUCAGCAGGGCACCUCUGAGAGAAAUGCC: the self-cleavage was found to be 0.

Regarding UACGUAGGUGGUUUCCCCCUGAUAGUGCUAAGGGGGCCUGGAAGUUUGGGCUGGGCAGAGCUCAACACAGCGUGGCAAAGUGGCUGUGGCUAGACUGCCUCUCUGGAUUCCUCGUCUCUCAGCAGGGCAUCUCUGAGAGAAAUGCC, the self-cleavage was determined as 0.84.

Take UACGUAGGUGGUUUCCCCCUGAUAGUGCUAAGGGGGCCUGGAAGUUUGGGCUGGGCAGAGCUCAACACAGCGUGGCAAAGUGGCUGUGGCUAGACUGCCUCUCUGGAUUCCUCGUCACUCAGCAGGGCAUCCCUGAGAGAAAUGCC: the self-cleavage amounted to 1.88.

As to UACGUAGGUGGUUUCCCCCUGAUAGUGCUAGGGGGGCCUGGAAGUUUGGACUGGGCAGAGCUCAACACAGCGUGGCAAAGUGGCUGUGGCUAGACUGCCUCCCUGGAUUCCCCGUCACUCAGCAGGGCAUCUCUGAGAGAAAUGCC, the self-cleavage came out at 1.97.

As to UACGUAGGUGGUUUCCCCCUGAUAGUGCUAAGGGGGCCUGGAAGUUUGGUCUGGGCAGAGCUCACCACAGCGUGGCAAAGUGGCUGUGGCUAGACUGCCUCUCUGGAUUCCUCGUCACUCAGCAGGGCAUCACUGAGAGAAAUGCC, the self-cleavage is 0.08.

As for UACGUAGGUGGUUUCCCCCUGAUAGUGCUAGGGGGGCCUGGAAGCUUGGACUGGGCAGAGCUCAACACAGCGUGGCAAAGUGGCUGUGGCUAGACUGCCUCUCUGGAUUCCUCGUCACUCAGCAGGGCAUCUCUGAGAGAAAUGCC, the self-cleavage turned out to be 1.6.

Values taken from the RNAGym collection of RNA variant scans (doi:10.7554/elife.90254).
